Source: the supplement of paper PMC10126150
Sequences with one replicate were seen in a single cluster, so their values are uncertain.
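Further: ATP exposure 15 min at 22 °C before imaging.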

These sequences were tested on ATP (assay: switch fluorescence ratio, 500 uM ATP over buffer (Cy3 cluster intensity, sum of 5 cycles each) (fold (ratio)); higher = stronger signal-on switching upon ATP binding; sequences stand for … in TCGTCGGCAGCGTCAGATGTGTATAAGAGACAGTTTTTTTTTTTTTTTTTTTTTTTTT…TC). Conditions: aptamer strand: ATP DNA aptamer (quencher-CACCTGGGGGAGTATTGCGGAGGAAGG + anchor), 100 nM annealed; ATP concentration: 500 uM; one replicate.
Summary of the method: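 The quencher-labelled ATP aptamer, at 100 nM, was annealed to Cy3-labelled switching-strand clusters on a modified Illumina MiSeq flow-cell. The clusters were imaged in selection buffer, then after 15 min with 500 uM ATP at 22 °C, and this buffer/ATP cycle ran five times with NaOH stripping and re-annealing between runs. Per-cluster fluorescence ratios, summed target-cycle over summed buffer-cycle Cy3 intensity, were averaged per switch-domain sequence. Clusters outside 100-1000 RFU were excluded.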
In the case of GGAGTGTACA, the switch fluorescence ratio is reported as 0.99. GGAGTGTCAT showed a switch fluorescence ratio of 0.982. Work on GGAGTTAACG yielded a switch fluorescence ratio of 0.911. GGAGTTAGAC was tested, and the switch fluorescence ratio was 1.08. For GGAGTTATCA, the switch fluorescence ratio was 1.02. For GGAGTTATGT, the switch fluorescence ratio was 1.01. In the case of GGATAACACT, the switch fluorescence ratio is reported as 1.06. Sequence GGATAATTGG has a switch fluorescence ratio of 1.01. GGATACAATA showed a switch fluorescence ratio of 0.98. Work on GGATAGGCCC yielded a switch fluorescence ratio of 1. GGATAGGCGG showed a switch fluorescence ratio of 1.06. Sequence GGATCACTAC has a switch fluorescence ratio of 1.1. GGATCAGCGG showed a switch fluorescence ratio of 1.06. GGATCCCTTA gave a switch fluorescence ratio of 1.02. With GGATCGTCCG the switch fluorescence ratio was 0.93. For GGATCTAGGA, the switch fluorescence ratio was 0.982. GGATCTTTGT showed a switch fluorescence ratio of 0.992. GGATGAAAAC showed a switch fluorescence ratio of 0.976. GGATGAACTT gave a switch fluorescence ratio of 1.01. GGATGAATGT showed a switch fluorescence ratio of 0.974. With GGATGCAGTA the switch fluorescence ratio was 1.02. Work on GGATGCGCTA yielded a switch fluorescence ratio of 1.03. With GGATGGAAAA the switch fluorescence ratio was 0.982. GGATGGCACG showed a switch fluorescence ratio of 0.914. For GGATGGGACC, the switch fluorescence ratio was 1. GGATGGT was tested, and the switch fluorescence ratio was 0.959. GGATGGTCGA showed a switch fluorescence ratio of 1. For GGATGGTTTG, the switch fluorescence ratio was 0.98. For GGATGTCTGG, the switch fluorescence ratio was 0.974. For GGATGTTCAA, the switch fluorescence ratio was 0.982. GGATTATGCT showed a switch fluorescence ratio of 1.03. In the case of GGATTATGTT, the switch fluorescence ratio is reported as 1.04. In the case of GGATTCACCT, the switch fluorescence ratio is reported as 1.1. Work on GGATTCCGAG yielded a switch fluorescence ratio of 1.11. Work on GGATTCGTTG yielded a switch fluorescence ratio of 0.99. GGATTGCCGC was tested, and the switch fluorescence ratio was 1.07. GGATTGTAAC was tested, and the switch fluorescence ratio was 0.972. For GGATTTATAG, the switch fluorescence ratio was 0.997. GGATTTCTTG was tested, and the switch fluorescence ratio was 0.998. Work on GGATTTTGAT yielded a switch fluorescence ratio of 0.973. Sequence GGATTTTTA has a switch fluorescence ratio of 1.02. GGCAAAAACA was tested, and the switch fluorescence ratio was 0.991. GGCAATTCCG gave a switch fluorescence ratio of 1.05. With GGCACGAAGT the switch fluorescence ratio was 0.98. Sequence GGCACGGGTG has a switch fluorescence ratio of 1.24. GGCACTTATG was tested, and the switch fluorescence ratio was 0.992. GGCAGACGCT was tested, and the switch fluorescence ratio was 0.974. Sequence GGCAGACGGC has a switch fluorescence ratio of 0.999. Work on GGCAGACGTC yielded a switch fluorescence ratio of 1.02. Work on GGCAGAGGTC yielded a switch fluorescence ratio of 0.962. For GGCAGAGTAG, the switch fluorescence ratio was 0.968. Sequence GGCAGCACTT has a switch fluorescence ratio of 1.03. With GGCAGGAGGC the switch fluorescence ratio was 1. Work on GGCAGGATGG yielded a switch fluorescence ratio of 0.995. Sequence GGCAGGTGCG has a switch fluorescence ratio of 1.04. With GGCAGGTGGC the switch fluorescence ratio was 1.09. GGCAGTTAGC gave a switch fluorescence ratio of 1.02. With GGCAGTTATA the switch fluorescence ratio was 0.957. GGCAGTTGAC was tested, and the switch fluorescence ratio was 0.987. GGCATACCAC showed a switch fluorescence ratio of 1.09. GGCATAGGTT showed a switch fluorescence ratio of 0.972. In the case of GGCATATTGG, the switch fluorescence ratio is reported as 1.06. In the case of GGCATCAACT, the switch fluorescence ratio is reported as 1.07. Sequence GGCATCATAA has a switch fluorescence ratio of 1.01. With GGCATCCATC the switch fluorescence ratio was 0.987. With GGCATCGGAT the switch fluorescence ratio was 0.982. In the case of GGCATCTATT, the switch fluorescence ratio is reported as 1.02. With GGCATGAGCT the switch fluorescence ratio was 0.99. Work on GGCATGGAGG yielded a switch fluorescence ratio of 1. Work on GGCATGGGGT yielded a switch fluorescence ratio of 1.02. In the case of GGCATTATTA, the switch fluorescence ratio is reported as 0.978. With GGCCAACCGA the switch fluorescence ratio was 0.995. GGCCAAGCTG gave a switch fluorescence ratio of 0.994. Work on GGCCAAGCTT yielded a switch fluorescence ratio of 0.999. GGCCACAACT was tested, and the switch fluorescence ratio was 0.974. For GGCCAGCCCG, the switch fluorescence ratio was 1.01. GGCCCAGAG was tested, and the switch fluorescence ratio was 1.07. Work on GGCCCAGAGC yielded a switch fluorescence ratio of 1.02. In the case of GGCCCAGGCG, the switch fluorescence ratio is reported as 2.23. GGCCCGGACG gave a switch fluorescence ratio of 1.02. Sequence GGCCCGTCTT has a switch fluorescence ratio of 1.11. GGCCCTAGCA was tested, and the switch fluorescence ratio was 1.01. GGCCCTAGGG was tested, and the switch fluorescence ratio was 0.996. For GGCCGACACA, the switch fluorescence ratio was 1.09. With GGCCGAGTGA the switch fluorescence ratio was 1.06. GGCCGCAGG showed a switch fluorescence ratio of 1.21. Work on GGCCGGACCT yielded a switch fluorescence ratio of 1.11. With GGCCGGAGAA the switch fluorescence ratio was 0.959. With GGCCGGCATC the switch fluorescence ratio was 1.03. In the case of GGCCGTGACA, the switch fluorescence ratio is reported as 0.954. GGCCGTTAGG showed a switch fluorescence ratio of 1.08. In the case of GGCCTAGCCG, the switch fluorescence ratio is reported as 0.999. GGCCTCAGAT was tested, and the switch fluorescence ratio was 0.982. In the case of GGCCTCCCAC, the switch fluorescence ratio is reported as 1.69. Sequence GGCCTCGTGT has a switch fluorescence ratio of 1.1. Work on GGCCTGATAC yielded a switch fluorescence ratio of 1.5. With GGCCTGGCAC the switch fluorescence ratio was 1.01. Work on GGCCTTGCGG yielded a switch fluorescence ratio of 1.01. For GGCGAAAGAC, the switch fluorescence ratio was 1.26. In the case of GGCGAAAGTA, the switch fluorescence ratio is reported as 1. Work on GGCGAAGTCT yielded a switch fluorescence ratio of 1.03. Sequence GGCGACCCGG has a switch fluorescence ratio of 1.04. In the case of GGCGACTGTA, the switch fluorescence ratio is reported as 0.972. Sequence GGCGATTGCC has a switch fluorescence ratio of 0.964. GGCGCAAGTG gave a switch fluorescence ratio of 0.993. Sequence GGCGCCCCGA has a switch fluorescence ratio of 1.03. In the case of GGCGCCCGGC, the switch fluorescence ratio is reported as 0.997. Work on GGCGCCTAGG yielded a switch fluorescence ratio of 1.01. GGCGCGGGAA was tested, and the switch fluorescence ratio was 1.03. In the case of GGCGCGGGTT, the switch fluorescence ratio is reported as 0.967. GGCGCTGGGT gave a switch fluorescence ratio of 0.986. GGCGGAAATT showed a switch fluorescence ratio of 0.95. GGCGGAAGGT was tested, and the switch fluorescence ratio was 1.01. GGCGGACGCG gave a switch fluorescence ratio of 0.969. GGCGGAGGAG gave a switch fluorescence ratio of 0.985. For GGCGGCGACG, the switch fluorescence ratio was 1.06. In the case of GGCGGCGATT, the switch fluorescence ratio is reported as 1.02. In the case of GGCGGGAAGG, the switch fluorescence ratio is reported as 0.969. With GGCGGTATAC the switch fluorescence ratio was 1.97. GGCGGTGCAG was tested, and the switch fluorescence ratio was 0.984. GGCGTAAACA gave a switch fluorescence ratio of 1.1. For GGCGTAACAG, the switch fluorescence ratio was 0.959. GGCGTATCTG showed a switch fluorescence ratio of 1.01. GGCGTCGGCT gave a switch fluorescence ratio of 1. For GGCGTGAGAA, the switch fluorescence ratio was 1.01. GGCGTTCAC gave a switch fluorescence ratio of 1.08. With GGCTAACTAC the switch fluorescence ratio was 1.19. Work on GGCTAACTTA yielded a switch fluorescence ratio of 1.04. With GGCTACGG the switch fluorescence ratio was 1.03. In the case of GGCTATGTAA, the switch fluorescence ratio is reported as 0.986. Work on GGCTCATGGA yielded a switch fluorescence ratio of 0.962. In the case of GGCTCATGGG, the switch fluorescence ratio is reported as 1.04. GGCTCATGTA was tested, and the switch fluorescence ratio was 0.992. Work on GGCTCCAATG yielded a switch fluorescence ratio of 1.02. In the case of GGCTCCTGCG, the switch fluorescence ratio is reported as 0.926. Work on GGCTCGCGAC yielded a switch fluorescence ratio of 1.1. In the case of GGCTCTCGTG, the switch fluorescence ratio is reported as 0.971. Sequence GGCTCTGGGA has a switch fluorescence ratio of 1.03. GGCTCTTTGG showed a switch fluorescence ratio of 0.97. GGCTGATATT showed a switch fluorescence ratio of 0.985. For GGCTGCACTG, the switch fluorescence ratio was 1.02. For GGCTGGAGAC, the switch fluorescence ratio was 1.01. In the case of GGCTGGATGA, the switch fluorescence ratio is reported as 0.958. GGCTGGGGAG gave a switch fluorescence ratio of 0.976. Work on GGCTGTATAG yielded a switch fluorescence ratio of 0.965. For GGCTGTTAGT, the switch fluorescence ratio was 0.946. With GGCTTAACCG the switch fluorescence ratio was 1.05. GGCTTAAGAC was tested, and the switch fluorescence ratio was 1. In the case of GGCTTAATTG, the switch fluorescence ratio is reported as 0.945. For GGCTTACCCG, the switch fluorescence ratio was 1.31. Work on GGCTTCACGG yielded a switch fluorescence ratio of 1.01. For GGCTTCAGCG, the switch fluorescence ratio was 0.968. For GGCTTCAGTC, the switch fluorescence ratio was 0.959.
